Reference: patent US20190112393 (published 2019)

T1: mouse FcγRIII (mouse, UniProt P08508)
T1 chain: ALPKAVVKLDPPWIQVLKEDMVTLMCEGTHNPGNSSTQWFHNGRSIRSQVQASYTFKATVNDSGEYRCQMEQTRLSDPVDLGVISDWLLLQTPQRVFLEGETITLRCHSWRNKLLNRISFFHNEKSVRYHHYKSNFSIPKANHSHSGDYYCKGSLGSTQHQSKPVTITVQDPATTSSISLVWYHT

T2: mouse FcγRIIb (mouse, UniProt P08101)
T2 chain: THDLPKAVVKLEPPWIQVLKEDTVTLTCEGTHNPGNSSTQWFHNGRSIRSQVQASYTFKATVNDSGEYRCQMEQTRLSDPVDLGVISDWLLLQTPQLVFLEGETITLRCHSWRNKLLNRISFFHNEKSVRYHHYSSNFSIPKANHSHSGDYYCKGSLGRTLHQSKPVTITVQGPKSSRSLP

T3: mouse FcγRI (mouse, UniProt P26151)
T3 chain: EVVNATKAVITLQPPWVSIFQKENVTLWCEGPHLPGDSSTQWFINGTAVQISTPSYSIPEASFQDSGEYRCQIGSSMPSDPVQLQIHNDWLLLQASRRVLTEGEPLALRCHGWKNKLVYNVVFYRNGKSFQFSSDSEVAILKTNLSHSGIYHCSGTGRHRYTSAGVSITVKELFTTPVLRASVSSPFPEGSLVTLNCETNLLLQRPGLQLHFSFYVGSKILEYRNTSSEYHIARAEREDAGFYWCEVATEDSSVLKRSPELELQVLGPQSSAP

T4: mouse FcγRIV (mouse, UniProt A0A0B4J1G0)
T4 chain: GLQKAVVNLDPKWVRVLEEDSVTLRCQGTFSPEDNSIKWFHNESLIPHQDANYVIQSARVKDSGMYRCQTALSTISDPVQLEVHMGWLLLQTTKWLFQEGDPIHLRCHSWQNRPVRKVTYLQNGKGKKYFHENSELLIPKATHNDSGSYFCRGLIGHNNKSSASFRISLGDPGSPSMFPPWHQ

T5: human FcγRIa (human, UniProt P12314)
T5 chain: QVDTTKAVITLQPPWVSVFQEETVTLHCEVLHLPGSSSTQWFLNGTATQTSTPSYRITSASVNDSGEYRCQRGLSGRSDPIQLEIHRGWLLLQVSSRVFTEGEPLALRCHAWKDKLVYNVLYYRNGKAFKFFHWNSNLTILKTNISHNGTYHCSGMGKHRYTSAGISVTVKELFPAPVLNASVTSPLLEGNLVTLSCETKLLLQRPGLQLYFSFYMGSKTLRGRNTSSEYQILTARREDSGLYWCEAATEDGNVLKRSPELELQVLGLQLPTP

B1: VH3/L(WT)-IgG1-F760 (antibody)
chain 1: QVQLQESGPGLVKPSETLSLTCAVSGHSISHDHAWSWVRQPPGEGLEWIGFISYSGITNYNPSLQGRVTISRDNSKNTLYLQMNSLRAEDTAVYYCARSLARTTAMDYWGEGTLVTVSS[sequence of human IgG1 constant region with L235R S239K (EU numbers) omitted]
chain 2: DIQMTQSPSSLSASVGDRVTITCRASQDISSYLNWYQQKPGKAPKLLIYYTSRLHSGVPSRFSGSGSGTDFTFTISSLQPEDIATYYCQQGNTLPYTFGQGTKVEIKRTVAAPSVFIFPPSDEQLKSGTASVVCLLNNFYPREAKVQWKVDNALQSGNSQESVTEQDSKDSTYSLSSTLTLSKADYEKHKVYACEVTHQGLSSPVTKSFNRGEC
B2: IL6R-G4d/IL6R-L (antibody)
chain 1: DIQMTQSPSSLSASVGDRVTITCRASQDISSYLNWYQQKPGKAPKLLIYYTSRLHSGVPSRFSGSGSGTDFTFTISSLQPEDIATYYCQQGNTLPYTFGQGTKVEIKASTKGPSVFPLAPCSRSTSESTAALGCLVKDYFPEPVTVSWNSGALTSGVHTFPAVLQSSGLYSLSSVVTVPSSSLGTKTYTCNVDHKPSNTKVDKRV[sequence of human IgG4 Fc with S228P (EU numbers) omitted]
chain 2: B1 chain 2

Columns and labels:
Assay in all cases: SPR
mouse FcγRIII = biological target: T1, mouse FcγRIII
mouse FcγRIIb = biological target: T2, mouse FcγRIIb
mouse FcγRI = biological target: T3, mouse FcγRI
mouse FcγRIV = biological target: T4, mouse FcγRIV
human FcγRIa = biological target: T5, human FcγRIa

Binder	binding result (mouse FcγRIII)	binding result (mouse FcγRIIb)	binding result (mouse FcγRI)	binding result (mouse FcγRIV)	Kd (human FcγRIa) [nM]
B1	no binding	no binding	no binding	no binding	
B2					0.66
